Assay results as given in the supplement of paper PMC3334620.
Over roughly 33,000 sequences, “E-score (-0.5 to 0.5)” has its median near -0.04; the highest 2% begin near 0.36. Some of the results follow.

target: T1, Hmlalpha2 (UniProt P0CY09); experiment: PBM E-score (8-mer binding enrichment) (E-score (-0.5 to 0.5)); higher = stronger / more preferred TF binding; most listed sequences are background and not binding sites; details: protein concentration: 200 nM; construct: GST-full length
T1 sequence: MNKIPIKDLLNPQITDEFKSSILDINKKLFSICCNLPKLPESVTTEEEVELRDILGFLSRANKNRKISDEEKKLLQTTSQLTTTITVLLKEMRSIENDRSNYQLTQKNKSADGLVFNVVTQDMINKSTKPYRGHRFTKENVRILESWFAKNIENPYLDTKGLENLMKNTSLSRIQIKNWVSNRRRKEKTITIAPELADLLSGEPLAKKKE
Outline: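 E-scores (a modified Wilcoxon-Mann-Whitney statistic) were assigned by the Universal PBM Analysis Suite to every ungapped eight-base word pooled with its reverse complement. The input came from universal all-10-mer Agilent arrays made double-stranded by primer extension and probed with GST-tagged yeast transcription factors at about 100-200 nM. Fluorescent anti-GST detected bound protein, and masliner normalised the scans.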

First: CGGCCGTC
Second: CATCCGAA
The “PBM E-score” value of the first is lower: -0.00449 for the first, 0.0505 for the second.

First: AAAGCGGA
Second: GGGTAGCA
The “PBM E-score” value of the first is higher: 0.0251 for the first, -0.177 for the second.

Going from TCACCAGA to GGTCGTTA, the “PBM E-score” value rises from -0.263 to 0.0728.

Compared with CCCCGCTA, AGAGACCG is higher in “PBM E-score” value: -0.237 for the first, -0.163 for the second.

Compared with ATTGTCAC, GCCCAATA is lower in “PBM E-score” value: 0.132 for the first, -0.0408 for the second.

Compared with CCTAACCA, GGGACGAC is lower in “PBM E-score” value: 0.006 for the first, -0.175 for the second.

First: TACCATAA
Second: AGCGACGA
The “PBM E-score” value of the first is higher: 0.0891 for the first, -0.192 for the second.

Compared with TACAATAA, GTGCCACA is lower in “PBM E-score” value: 0.179 for the first, -0.182 for the second.

First: AAAGGTCA
Second: ATGTTGCA
The “PBM E-score” value of the first is lower: 0.0116 for the first, 0.24 for the second.

Compared with ATCTTACA, TTGGGAAA is lower in “PBM E-score” value: 0.325 for the first, 0.0921 for the second.

First: CTCATCCA
Second: CCCGGTAG
The “PBM E-score” value of the first is higher: 0.00492 for the first, -0.152 for the second.

First: AGAAAAGC
Second: GGCGCACA
The “PBM E-score” value of the first is higher: -0.0875 for the first, -0.17 for the second.

Compared with GACGAGAA, TAATATCA is higher in “PBM E-score” value: 0.0881 for the first, 0.194 for the second.

Compared with CGTAAAGC, AGGACACT is lower in “PBM E-score” value: 0.305 for the first, -0.338 for the second.

Compared with ACCGAGCC, CCAATCGG is lower in “PBM E-score” value: -0.211 for the first, -0.233 for the second.

Compared with TACTAGGA, AAATCTTA is higher in “PBM E-score” value: 0.1 for the first, 0.191 for the second.

First: CTTTCGTC
Second: CGGCACTA
The “PBM E-score” value of the first is higher: -0.0195 for the first, -0.285 for the second.

Compared with CTGACATA, ACTATTCG is lower in “PBM E-score” value: 0.191 for the first, 0.044 for the second.

Going from CCAAGAAG to CCGCATAA, the “PBM E-score” value falls from -0.0027 to -0.111.

Going from GCCGACGA to ACGTAGAC, the “PBM E-score” value rises from -0.15 to 0.158.

Going from CGATTCGC to GATTGCAA, the “PBM E-score” value falls from 0.0691 to -0.0333.

Going from ACAGTAGC to AGATGCGC, the “PBM E-score” value falls from -0.0946 to -0.136.

Going from AGAGGTCC to CTGAGAGC, the “PBM E-score” value rises from -0.273 to -0.196.

First: ACTATAAC
Second: CGAACTAC
The “PBM E-score” value of the first is higher: 0.139 for the first, 0.108 for the second.

First: CGTCATAC
Second: GAGAGAGA
The “PBM E-score” value of the first is higher: 0.115 for the first, -0.166 for the second.

First: GCCTTTAA
Second: AATTCGGC
The “PBM E-score” value of the first is higher: 0.0307 for the first, -0.138 for the second.

Compared with AGACAACT, ATATGTGG is higher in “PBM E-score” value: 0.0402 for the first, 0.126 for the second.

Compared with CTGCGCGA, GCTTCGAA is higher in “PBM E-score” value: -0.0912 for the first, -0.0348 for the second.

Going from CTTCAGGC to CAAGGGTG, the “PBM E-score” value rises from -0.198 to -0.153.

First: GAGGTGTA
Second: CTAGAGAG
The “PBM E-score” value of the first is higher: 0.155 for the first, -0.259 for the second.

Compared with CTACCGTC, GTGTAAGA is higher in “PBM E-score” value: -0.296 for the first, 0.401 for the second.

Compared with ACCCCTTA, GGAACGAA is lower in “PBM E-score” value: -0.0706 for the first, -0.0762 for the second.

Compared with CGATTAGC, AACGGATC is higher in “PBM E-score” value: -0.0638 for the first, 0.116 for the second.

Compared with ATCATTCA, CGCTAGAG is lower in “PBM E-score” value: 0.113 for the first, -0.227 for the second.

First: GCTGCAGC
Second: TAAGGTAA
The “PBM E-score” value of the first is lower: -0.305 for the first, 0.132 for the second.

Compared with GCGGATTA, CGGGTTAC is higher in “PBM E-score” value: -0.0224 for the first, 0.0302 for the second.

Compared with ACTTTGCT, CCCGCGTC is lower in “PBM E-score” value: 0.0124 for the first, -0.0309 for the second.

Compared with TCCTTTAA, GAGTAGCC is lower in “PBM E-score” value: -0.023 for the first, -0.305 for the second.

Going from CGAGTGAC to CCGCGAGC, the “PBM E-score” value falls from -0.274 to -0.348.

First: GCGTTACC
Second: AATGTGCC
The “PBM E-score” value of the first is higher: -0.0424 for the first, -0.191 for the second.

First: GGGAGACA
Second: GTGTCGCA
The “PBM E-score” value of the first is lower: -0.0526 for the first, 0.0153 for the second.

Compared with GCGACACA, CACCAGTC is lower in “PBM E-score” value: 0.00146 for the first, -0.173 for the second.

Compared with ATCGTAGG, ATATAATG is higher in “PBM E-score” value: -0.0603 for the first, 0.226 for the second.

Going from ACTGTGGG to AGATTGCA, the “PBM E-score” value rises from -0.0995 to 0.0357.

Compared with CCGGGCAA, CGTAGATA is higher in “PBM E-score” value: -0.286 for the first, 0.232 for the second.

First: AGTGAAGC
Second: AAGGGGGC
The “PBM E-score” value of the first is higher: -0.182 for the first, -0.251 for the second.

Compared with AAATCTGG, AGCTGAAC is lower in “PBM E-score” value: -0.125 for the first, -0.157 for the second.

Compared with GGTAAACA, AAAGCATC is lower in “PBM E-score” value: 0.333 for the first, 0.0202 for the second.

Going from TACTCGAA to AAGTAAGG, the “PBM E-score” value falls from 0.145 to 0.007.

Compared with AGTTCCCC, AATCGACC is higher in “PBM E-score” value: -0.205 for the first, -0.126 for the second.

Compared with GTGATCAC, ATGGGGAA is higher in “PBM E-score” value: -0.229 for the first, -0.121 for the second.

First: GCCCCTCC
Second: AATGGGTA
The “PBM E-score” value of the first is lower: -0.277 for the first, 0.184 for the second.

First: CCCAGTAC
Second: CCTGCATA
The “PBM E-score” value of the first is higher: -0.155 for the first, -0.171 for the second.

First: AGGACTTA
Second: AACGGTAT
The “PBM E-score” value of the first is lower: -0.168 for the first, -0.0341 for the second.

Going from CGCACAGC to CGCGGATC, the “PBM E-score” value falls from -0.0502 to -0.268.

Going from GACTAAAC to CAAGCGTG, the “PBM E-score” value rises from -0.0435 to 0.13.

Compared with TCTATACA, GAAAGATA is lower in “PBM E-score” value: 0.209 for the first, 0.00594 for the second.

First: GGTGGCCA
Second: AATCCGAC
The “PBM E-score” value of the first is lower: -0.251 for the first, -0.00527 for the second.

Compared with AGTGGGCG, CGTACTAA is higher in “PBM E-score” value: -0.0157 for the first, 0.244 for the second.

Compared with CTGTACTC, CGACTGAA is lower in “PBM E-score” value: -0.175 for the first, -0.261 for the second.

Compared with ACCCCCCA, CGCTCCGA is higher in “PBM E-score” value: -0.207 for the first, -0.164 for the second.

First: ACGCTTCC
Second: ACAATGGA
The “PBM E-score” value of the first is lower: -0.0123 for the first, 0.122 for the second.

Compared with CGATTAGA, GGTACCTA is lower in “PBM E-score” value: 0.041 for the first, -0.0174 for the second.

Compared with AGACTAGG, AACCTCGT is higher in “PBM E-score” value: -0.258 for the first, 0.133 for the second.

First: ATCTTAGG
Second: CCCACAGA
The “PBM E-score” value of the first is lower: -0.215 for the first, -0.103 for the second.

Compared with GTGGTGGA, CGGATAGA is higher in “PBM E-score” value: -0.0615 for the first, -0.0391 for the second.

Going from ATCAGATA to GCCCAGCA, the “PBM E-score” value falls from -0.0109 to -0.202.

Compared with CAGAGACG, AGTGAGAG is higher in “PBM E-score” value: -0.083 for the first, -0.0314 for the second.

Compared with ACTACCAA, AGATAACC is lower in “PBM E-score” value: 0.0425 for the first, -0.221 for the second.

Going from ACCGCGGA to AGGAAGAA, the “PBM E-score” value rises from -0.151 to -0.122.

First: AGCTTTAC
Second: ACGGGGAC
The “PBM E-score” value of the first is higher: 0.19 for the first, -0.273 for the second.

First: GAAAGAAC
Second: CGTTGACA
The “PBM E-score” value of the first is lower: 0.0333 for the first, 0.247 for the second.

First: CTTGGCAC
Second: GCCAGAAC
The “PBM E-score” value of the first is higher: -0.0576 for the first, -0.0733 for the second.

Compared with ACGTTTGA, ATATAGCC is higher in “PBM E-score” value: -0.00079 for the first, 0.0755 for the second.

Compared with CGGGTAGC, CTTGGCCA is higher in “PBM E-score” value: -0.251 for the first, -0.15 for the second.

First: ATCTTCCA
Second: ATATCTAC
The “PBM E-score” value of the first is lower: 0.0369 for the first, 0.136 for the second.

Going from GCCTGTAA to CGGTTGTC, the “PBM E-score” value falls from 0.254 to 0.0856.

First: GCGACTAA
Second: ATTACCTA
The “PBM E-score” value of the first is lower: 0.0525 for the first, 0.282 for the second.

Going from CCCAGGCC to AGCTCGAC, the “PBM E-score” value rises from -0.227 to -0.0133.

Going from AGTTATAG to GATGGGTA, the “PBM E-score” value falls from 0.182 to -0.052.

Going from AAAGTGGC to AATAATCG, the “PBM E-score” value rises from -0.206 to 0.168.

First: ATCAGGTC
Second: GCTCATAA
The “PBM E-score” value of the first is higher: 0.00309 for the first, -0.0832 for the second.

Going from AGTGTCCC to CACCAGCC, the “PBM E-score” value falls from -0.152 to -0.231.

Going from CTTTGACA to ACGGATAC, the “PBM E-score” value falls from 0.247 to 0.0886.

Going from TATAGCGA to GGGCCATA, the “PBM E-score” value falls from -0.104 to -0.105.

Compared with CTTCGCAA, TCTCTTAA is higher in “PBM E-score” value: 0.0143 for the first, 0.138 for the second.
